Experimental data from PubChem BioAssay AID602332 (National Center for Advancing Translational Sciences (NCATS), 2012).
“And” between values parts separate entries of the source, which are not always exact repeats. Equal values may be shown once. The campaign covered roughly 420,000 compounds. About 75 (0.02%) were called active. The inconclusive results got no clear call from the source; some entries with a clear call stand among them for comparison. Calls come from the whole dose curve; as a rule, active = well fitted activation curve with a large enough effect; inconclusive = small, poorly fitted or top-dose-only effect; inactive = no such curve, though single readings can be large or run the other way. Potencies beside an inconclusive call are fits to weak or partial responses and may not hold up.

test: qHTS for Inducers of the Endoplasmic Reticulum Stress Response (ERSR) in Human Glioma: qHTS; conditions: U87-MG GRP78 promoter luciferase reporter, 16 h; activation: hits give high values; note: nearly all actives have a fitted effect of over 35% in size; for activation: % of control where 0% means no effect
How it was run: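 Stably transfected U87-MG glioma cells carrying a GRP78-based luciferase sensor; 16 h compound incubation. Luminescence end-point read 10 min after Bright-Glo addition at room temperature.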
Potency is the fitted concentration of half-maximal effect; tags give direction and shape of the fitted curve.

With `CCOP(=O)(CCP(=O)(OCC)OCC)OCC.C[CH2][Sn]([Cl])([Cl])[CH2]C` as the molecule, how does the activation read?
Its activation is inactive: -13.9%.

For `Cc1cc(C=C2C(=O)NC(=S)NC2=O)c(C)n1C1CCCC1`, which Potency is on record?
Its Potency is inconclusive: 50.1 µM [activator, partial curve, poor fit].

Which Potency does the source give for `CSCCOC(=O)COc1ccc(/C=N/NC(=O)c2c(Cl)cnn2C)cc1` here?
Its Potency is inconclusive: 20 µM [activator, single point].

For `O=S(=O)(Nc1c(O)ccc2ccccc12)c1ccc(F)cc1`, which Potency is on record?
The Potency was inconclusive: 12.6 µM [activator, single point].

With `CCOC(=O)CSc1ccc(C(=O)N2CCC3(CC2)OCCO3)cc1[N+](=O)[O-]` as the molecule, how does the Potency read?
The Potency was inconclusive: 12.6 µM [activator, single point].

Which activation does the source give for `O=C1NC(=S)NC(=O)C1C/C=C/c1ccccc1` here?
Its activation is inactive: 1.17%.

With `COc1ccccc1N=Nc1c(O)[nH]c(=S)[nH]c1=O` as the molecule, how does the Potency read?
Its Potency is inconclusive: 5.62 µM [activator, full curve].

For `O=C(O)c1ccc(-n2c(O)c(/C=C3\C=Nc4ccccc43)c(=O)[nH]c2=O)cc1`, which activation is on record?
Its activation is inactive: -1.31%.

For `C[n+]1ccc(-c2ccncc2)cc1`, which activation is on record?
Its activation is inactive: -3.9%.

For `Cc1ccc(Cl)cc1NC(=O)Cn1c(=O)oc2cc(S(=O)(=O)N3CCCCCC3)ccc21`, which Potency is on record?
The Potency was inconclusive: 15.8 µM [activator, single point].

Which Potency does the source give for `CNc1ccc2oc(C[C@@H]3OC4(CC[C@@H]3C)O[C@H](C(C)C(=O)c3ccc[nH]3)[C@H](C)C[C@H]4C)nc2c1C(=O)O` (some centres not stated) here?
The Potency was inconclusive: 2.24 µM [activator, full curve, poor fit].

For `O=c1c(C=NCc2cccs2)c(O)n(C2CCCCC2)c(=O)n1C1CCCCC1`, which activation is on record?
The activation was inactive: -4.63%.

With `ClCCN(CCCl)c1ccc(-n2cnc3c(Cl)ncnc32)cc1` as the molecule, how does the Potency read?
The Potency was inconclusive: 39.8 µM [activator, partial curve, poor fit].

With `CCCn1c(=O)c2[nH]c(C3CCCC3)nc2n(CCCOC(=O)c2ccc(S(=O)(=O)F)cc2)c1=O` as the molecule, how does the Potency read?
Its Potency is inconclusive: 52.1 µM [activator, partial curve, poor fit].

For `CCCCC1(C2CCCC2)Cc2cc(OCCCC(=O)O)c(Cl)c(Cl)c2C1=O` (configuration not stated), which Potency is on record?
The Potency was inconclusive: 35.5 µM [activator, partial curve, poor fit].

Which Potency does the source give for `O=C(CCCN1CCC2(CC1)C(=O)NCN2c1ccccc1)c1ccc(F)cc1` here?
The Potency was inconclusive: 20 µM [activator, partial curve, poor fit] and inconclusive: 11.7 µM [activator, full curve].

With `COP(C)(=O)c1c(C)nn(-c2ccccc2)c1C` (configuration not stated) as the molecule, how does the Potency read?
The Potency was inconclusive: 25.1 µM [activator, single point].

For `O=C1NCN(c2ccccc2)C12CCN(CCCOc1ccc(F)cc1)CC2`, which Potency is on record?
Its Potency is inconclusive: 25.1 µM [activator, partial curve] and inconclusive: 12.6 µM [activator, full curve, poor fit].

With `CCN1C(=O)C(=C/C=C/c2ccco2)C(=O)N(CC)C1=S` as the molecule, how does the activation read?
Its activation is inactive: -4.44%.

For `O=C1NCc2c1c1c3ccccc3[nH]c1c1[nH]c3ccccc3c21`, which Potency is on record?
The Potency was inconclusive: 14.1 µM [activator, full curve, poor fit].

With `Cc1c(C(=O)c2cccc3ccccc23)c2cccc3c2n1[C@H](CN1CCOCC1)CO3` as the molecule, how does the Potency read?
The Potency was inconclusive: 9.27 µM [activator, full curve, poor fit].

Which Potency does the source give for `O=C(Nc1ncccc1O)c1ccc(S(=O)(=O)NCc2ccco2)cc1` here?
The Potency was inconclusive: 44.7 µM [activator, partial curve, poor fit].

Which Potency does the source give for `F/C(COc1ccc2c(c1)[nH]c1ccccc12)=C1/CN2CCC1CC2` here?
The Potency was inconclusive: 10 µM [activator, partial curve, poor fit].

With `NC(=O)c1ccc(OCCC(O)N2CC=C(c3ccc(F)cc3)CC2)cc1` (configuration not stated) as the molecule, how does the activation read?
Its activation is inactive: -0.0595%.

With `O=S(=O)(Nc1ccc(-c2nc3ccccc3o2)cc1)c1ccccc1` as the molecule, how does the Potency read?
Its Potency is inconclusive: 8.91 µM [activator, partial curve, poor fit].

Which activation does the source give for `Cn1cccc1/C=C1\C(=O)NC(=O)N(Cc2ccccc2Cl)C1=O` here?
The activation was inactive: -5.34%.

Which Potency does the source give for `CCOC(=O)c1c(-n2c(C)cc(C=C3C(=O)NC(=S)NC3=O)c2C)sc2c1CCCC2` here?
Its Potency is inconclusive: 25.1 µM [activator, single point].

With `Cn1c(O)c(/C=C2\C=Nc3ccccc32)c(=O)n(C)c1=O` as the molecule, how does the activation read?
Its activation is inactive: 5.13%.

For `C=CCN1C(=O)NC(=O)/C(=C/C=C/c2ccccc2)C1=O`, which Potency is on record?
The Potency was inconclusive: 50.1 µM [activator, single point].

With `C[n+]1c2cc(N)ccc2cc2ccc(N)cc21` as the molecule, how does the Potency read?
Its Potency is inconclusive: 35.5 µM [activator, partial curve, poor fit].

With `C=CCN1CCc2cccc3c2[C@H]1Cc1ccc(O)c(O)c1-3` as the molecule, how does the Potency read?
The Potency was inconclusive: 58.5 µM [activator, partial curve, poor fit].

Which Potency does the source give for `O=C(Nc1ccc(F)c([N+](=O)[O-])c1)N1C[C@H]2C[C@@H](C1)c1cccc(=O)n1C2` here?
The Potency was inconclusive: 28.2 µM [activator, single point].

For `Cc1nccn1-c1c([N+](=O)[O-])c(=O)n(C)c2ccccc12`, which Potency is on record?
The Potency was inconclusive: 44.7 µM [activator, single point].

Which Potency does the source give for `c1ccc(-c2nnc(SCc3ccncc3)o2)cc1` here?
The Potency was inconclusive: 56.2 µM [activator, single point].

Which Potency does the source give for `Cc1cc(C)cc(N2C(=O)NC(=O)/C(=C\c3cccn3-c3ccc(Cl)cc3)C2=O)c1` here?
Its Potency is inconclusive: 44.7 µM [activator, partial curve, poor fit].

Which Potency does the source give for `Cc1cc(I)ccc1Nc1c(C(=O)NOCC2CC2)cc(F)c(F)c1F` here?
The Potency was inconclusive: 50.1 µM [activator, single point].

For `COc1cccc(NC(=O)c2ccc3c(=O)n4nc(Nc5ccccc5OC)sc4nc3c2)c1`, which Potency is on record?
The Potency was inconclusive: 50.1 µM [activator, partial curve, poor fit].

Which Potency does the source give for `C=C(C)[C@@]12OC3(c4ccccc4)O[C@@H]1C1[C@@H]4O[C@]4(CO)[C@@H](O)[C@]4(O)C(=O)C(C)=C[C@H]4[C@@]1(O3)[C@H](C)[C@H]2OC(=O)/C=C/C=C/c1ccccc1` (some centres not stated) here?
The Potency was inconclusive: 11.2 µM [activator, full curve, poor fit].

With `CCn1ccnc1CN1CCCC(C(=O)c2ccc(OC)cc2OC)C1` (configuration not stated) as the molecule, how does the Potency read?
The Potency was inconclusive: 63.1 µM [activator, single point].

With `CCCCC/C=C\C/C=C\C/C=C\C/C=C\CCCC(=O)NCc1ccc(O)c(OC)c1` as the molecule, how does the Potency read?
Its Potency is inconclusive: 50.1 µM [activator, single point].

Which activation does the source give for `[Hg+][c]1ccccc1` here?
Its activation is inactive: -10.6% and inactive: -11.6%.

For `Cc1cc(NC(=O)CCl)no1`, which Potency is on record?
The Potency was inconclusive: 44.7 µM [activator, partial curve, poor fit].

With `CC(C)C[C@H](NC(=O)[C@H](Cc1ccccc1)NC(=O)CNC(=O)[C@H](CS)N(C(=O)[C@@H](N)Cc1ccc(O)cc1)C(C)(C)C)C(=O)N([C@H](C(=O)O)[C@H](C)O)C(C)(C)C` as the molecule, how does the Potency read?
Its Potency is inconclusive: 50.1 µM [activator, single point].

Which activation does the source give for `COc1ccc(N2C(=O)NC(=O)/C(=C\c3cn(C)c4ccccc34)C2=O)cc1` here?
The activation was inactive: -0.279%.

With `Nc1c([N+](=O)[O-])ccc(Oc2ccccc2)c1Cl` as the molecule, how does the activation read?
The activation was inactive: -5.23%.

For `CCc1ccc(-n2c(SC(CC)C(=O)N(CC)CC)nc3n[nH]c(C)c3c2=N)cc1` (configuration not stated), which Potency is on record?
Its Potency is inconclusive: 14.1 µM [activator, single point].

Which Potency does the source give for `COc1cc(CC(=O)OCC2=C[C@H]3[C@@H]4C(C)(C)[C@]4(OC(C)=O)[C@H](OC(=O)Cc4ccccc4)[C@@H](C)[C@]3(O)[C@@H]3C=C(C)C(=O)[C@@]3(O)C2)ccc1O` here?
Its Potency is inconclusive: 7.08 µM [activator, partial curve, poor fit].

Which Potency does the source give for `O=C(O)c1ccc(-c2ccc3cc(C45CC6CC(CC(C6)C4)C5)c(O)cc3c2)cc1` here?
Its Potency is inconclusive: 44.7 µM [activator, partial curve].

For `O=c1nc(/C=C/c2ccc(Cl)cc2Cl)cc(C(F)(F)F)[nH]1`, which Potency is on record?
The Potency was inconclusive: 50.1 µM [activator, single point].

With `C[C@@H]1C(=O)O[C@H]2CC34[C@H]5C[C@@H](C(C)(C)C)[C@]36[C@@H](OC(=O)[C@@H]6O)O[C@@]4(C(=O)O5)[C@]21O` (some centres not stated) as the molecule, how does the Potency read?
The Potency was inconclusive: 10 µM [activator, single point].

With `Cc1cccnc1NC1=NCC(C)S1` (configuration not stated) as the molecule, how does the activation read?
The activation was inactive: -5.08%.

With `CC(C)=CCCC1(C)C=Cc2c(O)c3c(c(CC=C(C)C)c2O1)OC12C(CC4CC1C(C)(C)OC2(C/C=C(/C)C(=O)O)C4O)C3=O` (configuration not stated) as the molecule, how does the Potency read?
The Potency was inconclusive: 50.1 µM [activator, single point].

With `C[C@H]1C[C@H](C)C(=O)[C@@H]([C@H](O)CC2CC(=O)NC(=O)C2)C1` as the molecule, how does the activation read?
Its activation is inactive: -5.69% and inactive: -4.93%.

With `CCOc1ccccc1N1C(=O)NC(=O)/C(=C/c2ccc3c4c(cccc24)CC3)C1=O` as the molecule, how does the Potency read?
Its Potency is inconclusive: 44.7 µM [activator, partial curve, poor fit].

Which Potency does the source give for `Cc1nc2sc3c(c2c(=O)n1NC(=O)CCl)CCCC3` here?
The Potency was inconclusive: 39.8 µM [activator, partial curve, poor fit].

Which Potency does the source give for `N[C@@H](Cn1ccc(=O)[nH]c1=O)C(=O)O` here?
The Potency was inconclusive: 18.5 µM [activator, partial curve, poor fit].

For `COc1cccc(NP(=O)(Oc2ccccc2)Oc2ccccc2)c1`, which activation is on record?
Its activation is inactive: 0.974%.
